Results taken from ChEMBL document CHEMBL4888484, “Replenishing the malaria drug discovery pipeline: Screening and hit evaluation of the MMV Hit Generation Library 1 (HGL1) against asexual blood stage Plasmodium falciparum ,using a nano luciferase reporter read-out” (2022).
In all, about 150,000 compounds went through this assay and about 540 (0.36%) showed an effect of 50% or more. This is one part of the list.

These compounds were tested on Plasmodium falciparum (assay: Primary screen in NF54 nanoGlo assay, in single point, at 2uM, 72h; a lower Z score goes with more inhibition). Conditions: timepoint 72 hour.
Assay type: functional, Erythrocyte
With COc1cc(F)c(CN(C)Cc2cc(C3CC3)[nH]n2)c(F)c1 the “% Inhibition” value was -3% and the Z score was 0.42. CCCCN(CC(=O)N(Cc1ccco1)C[C@H]1CCCO1)C(=O)COC was tested, and the “% Inhibition” value was 4% and the Z score was -0.57. In the case of CCN=C(NCCOC)NCc1ccc(F)c(COC)c1, the “% Inhibition” value is reported as -13% and the Z score is reported as 1.21. COC[C@@]1(C(=O)OC(C)(C)C)CCCN1CCC(=O)NC(N)=O was tested, and the “% Inhibition” value was -8% and the Z score was 1.18. In the case of Cc1ccccc1CN1CCCN(C(=O)c2cnsn2)CC1, the “% Inhibition” value is reported as 8% and the Z score is reported as -0.99. With Cc1sc(NC(=O)C(C)C)c(C(=O)N2CCn3cncc3C2)c1C the “% Inhibition” value was 11% and the Z score was -1.58. In the case of c1ccc2c(CNc3nc4ccccc4n3CCN3CCOCC3)cccc2c1, the “% Inhibition” value is reported as -8% and the Z score is reported as 0.69. COCCC(C)NC(=O)C(C)Oc1ccccc1Br (centres undefined) was tested, and the “% Inhibition” value was -12% and the Z score was 1.12. In the case of CCCc1nc(N[C@H]2CN(C(C)C)C[C@@H]2OC)c2cnn(C)c2n1, the “% Inhibition” value is reported as -2% and the Z score is reported as 0.24. In the case of O=C(O)COc1ccc(CN2CCO[C@H]3CCCC[C@@H]32)cc1, the “% Inhibition” value is reported as -11% and the Z score is reported as 2.04. With CN1N=C(C(=O)Nc2cccc3c2CCCC3)CCC1=O the “% Inhibition” value was -14% and the Z score was 1.23. CCCC(=O)OC[C@@H](O)CN(Cc1ccccc1)Cc1cccn1Cc1ccc(C(C)(C)C)cc1 was tested, and the “% Inhibition” value was -7% and the Z score was 1.25. For Cn1c(=O)c2c(ncn2CC(=O)N2CC(n3cc(-c4ccccc4)nn3)C2)n(C)c1=O, the “% Inhibition” value was -20% and the Z score was 3.49. For COc1ncccc1C(=O)Nc1cc(Br)c(=O)n(C)c1, the “% Inhibition” value was 0% and the Z score was -0.03. With COc1ccccc1-c1n[nH]cc1CN1CC(F)(F)C[C@H]1CN1CCCCCC1 the “% Inhibition” value was -7% and the Z score was 1.23. For O=S(=O)(c1ccc(Cl)s1)N1CCC(Oc2cccnn2)CC1, the “% Inhibition” value was -10% and the Z score was 1.9. In the case of COCCN1C[C@H]2CN(Cc3ccccc3C)CCN2C1=O, the “% Inhibition” value is reported as -13% and the Z score is reported as 1.95. For CN(C(=O)c1cc(-c2ccccc2)c(N2CCOCC2)s1)C1(C#N)CCC1, the “% Inhibition” value was -9% and the Z score was 1.01. For CCc1cc2c(NC(c3ccccc3)C3CCCO3)ncnc2s1 (centres undefined), the “% Inhibition” value was -8% and the Z score was 0.94. For COC(=O)[C@@H](C)NC(=O)[C@H]1CN(S(=O)(=O)c2ccccc2)CCN1C(C)=O, the “% Inhibition” value was 0% and the Z score was 0.07. In the case of O=C(c1cnn2cccnc12)N(Cc1ccccc1)c1ccccc1, the “% Inhibition” value is reported as -22% and the Z score is reported as 3. In the case of Cc1nc(COC(=O)c2c[nH]nc2-c2c(F)cccc2F)no1, the “% Inhibition” value is reported as 32% and the Z score is reported as -0.69. With CS(=O)(=O)CCNC(=O)Nc1snc2ccccc12 the “% Inhibition” value was -6% and the Z score was 1.14. CCn1cc(S(=O)(=O)N2CCCCCCNC(=O)[C@@H]3CCCC[C@@H]32)cn1 was tested, and the “% Inhibition” value was -6% and the Z score was 0.7. With O=C(NCCn1nc(-c2ccncc2)ccc1=O)Nc1ccccc1 the “% Inhibition” value was -13% and the Z score was 2.16. CCNc1ccnc(N[C@H]2CCN(C(C)(C)C)C2)n1 was tested, and the “% Inhibition” value was -18% and the Z score was 3.04. For Cc1ccc(-c2cn3c(n2)CO[C@@H](CNC(=O)c2ccccc2)C3)cc1, the “% Inhibition” value was 1% and the Z score was -0.09. In the case of O=C(CCCN1CCCCC1)NCc1csc(N2CCOCC2)n1, the “% Inhibition” value is reported as -17% and the Z score is reported as 1.55. In the case of COCCNC(=O)Cn1nc(C)c2sc(-c3ccccc3)nc2c1=O, the “% Inhibition” value is reported as -10% and the Z score is reported as 1.39. For Cc1cccc2ncnc(N3CCC4(CCOCC4)[C@@H]3C)c12, the “% Inhibition” value was -4% and the Z score was 0.56. For COCC1(CNC(=O)[C@H]2CCOC2)CCC1, the “% Inhibition” value was -12% and the Z score was 2.12. O=C(Nc1nc(CN2CCCCCC2)cs1)c1occc1-c1ccccc1 was tested, and the “% Inhibition” value was 1% and the Z score was -0.08. C[C@H]1C(=O)NCC2(COC2)N1S(=O)(=O)c1cc(F)cc(Cl)c1 was tested, and the “% Inhibition” value was -7% and the Z score was 1.38. In the case of CCC(=O)Nc1ccc2c(c1)cc(C(=O)NCCN1CCOCC1)n2Cc1ccc(F)cc1, the “% Inhibition” value is reported as -2% and the Z score is reported as 0.31. With Cc1ccc(-c2noc(-c3ccccc3S(=O)(=O)NCc3cccs3)n2)cc1 the “% Inhibition” value was 5% and the Z score was -0.61. For Cc1ccc(-c2nc3nc(C)c(CC(=O)NCc4ccccc4)c(C)n3n2)cc1, the “% Inhibition” value was -6% and the Z score was 0.92. For C=CCCO[C@@H](C)C(=O)N1CCCN(C(=O)CCc2ccc(OC)cc2)CC1, the “% Inhibition” value was 1% and the Z score was -0.17. With N#Cc1ccc(N2CCN3C(=O)C(=O)NC[C@H]3C2)nc1 the “% Inhibition” value was -3% and the Z score was 0.44. With CCCCn1nc(Cc2ccccc2OC)nc1[C@@H]1CCC(=O)N1 the “% Inhibition” value was 2% and the Z score was -0.38. O=C(Nc1ccccc1)N1CCCCCCC1 was tested, and the “% Inhibition” value was 5% and the Z score was -0.53. For CC(C)(C)N1CC(NC(=O)CCCC2C(=O)Nc3ccccc32)CC1=O (centres undefined), the “% Inhibition” value was 2% and the Z score was -0.21. In the case of Cc1noc(C)c1S(=O)(=O)N1C[C@H]2CCCC(=O)N[C@H]2C1, the “% Inhibition” value is reported as 35% and the Z score is reported as -3.96.
